# Laboratory results: the supplement of paper PMC11417369
# ± gives the standard deviation of the averaged measurements. This is one part of the list.
# Tested on: PfAP2-G AP2 domain (GST-tagged)
# Assay: gcPBM binding intensity (ln(normalized median fluorescence intensity)); higher = stronger DNA binding
# Summary of the method: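 Each value is the highest Masliner-normalised natural-log median intensity across replicate spots of either orientation of a probe. The probes were primer-extended double-stranded 36-bp intergenic genomic sequences on an Agilent 4 × 180k array, alongside negative controls, exposed for 1 h to GST-tagged P. falciparum DNA-binding domains expressed in E. coli. Bound protein was picked up with Alexa488 anti-GST antibody and scanned at 488 nm.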
row,Sequence,gcPBM binding intensity (ln)
1,CAAGCCCTTCTGCTTACACACAGTAATTATTGTGCA [CACACA_site7399],9.84 ± 0.11
2,ATCTATATCTATAATACACACATAAATGGATATATA [CACACA_site6284],9.91 ± 0.11
3,AATGTGTACGCACGCACACACAAAAAAATATATATA [CACACA_site2913],11.6 ± 1.2
4,TTATGCAATTTGTATTGTACATTCATGATATTAATA [XGTACX_site5070],10.6 ± 0.38
5,TAAATATATTTATAAGCACACACTAATAAACCAACA [CACACA_site8022],10.3 ± 0.18
6,TATTTATCTTTACGCACACACTTGCATGTACAAAAG [CACACA_site4753],11.2 ± 0.84
7,ATATGTATGTATTTATTATTGTGCATTGTATTTATA [CACACA_negctrl_site664],10.055 ± 0.007
8,TTTATTTTATTTTCATGTACAAAAGGGGAATAATAA [XGTACX_site2704],10.9 ± 0.71
9,GATTTATACAAATATGTACACACTAAATATATATTA [CACACA_site455],11.6 ± 0.9
10,TTTGAATATTCATATGCACACAAATTAATATACATA [CACACA_site8040],10.1 ± 0.17
11,TTTATTTATGTGTGGGTGCATATACGTATGATGTAT,10.6 ± 0.49
12,AATACCCATATCTTCACACATACATAATAAATTATA [CACACA_site5367],10.1 ± 0.3
13,AGCAACTCAATATATATAAGAATTGTAATATAATAT [GTGCAC_negctrl_site429],9.47 ± 0.28
14,ATACAATACAAAAACACACACAAAAAAAGAAAAGGA [CACACA_site2156],10 ± 0.11
15,GTCGTATAATTTTCAGTGCAATATTTGAATAAATGG [GTGCAC_site9404],10.1 ± 0.18
16,ATTTATTAATTACCATGTATAAAAAATTATATAATA [CACACA_negctrl_site581],9.87 ± 0.16
17,ATATATTTATATATTTGTACATATAATATCTTCTTT [XGTACX_site8504],10.7 ± 0.45
18,ACACATAATATGTGTAGTACTTTTTCTTTAACATTA [XGTACX_site1436],11.3 ± 0.73
19,TATAAATATAAATATACACACATATATTTATTTATA [CACACA_site6890],9.645 ± 0.078
20,AACAGTAACATTGAATGTACTTAATTTTAAGAAAAT [XGTACX_site2971],11.2 ± 0.73
21,TTAAAATAAAGAAAATGTACATAAATTAAAATAAAG [XGTACX_site2281],11.3 ± 0.71
22,TTTTTTTTTTTTTTTATAGTACATTACCAAAAAAAA [CACACA_negctrl_site1197],11 ± 0.81
23,ATTTATTGACTATTTACACACATATTTATTATAATA [CACACA_site1624],10.2 ± 0.13

row,Sequence,gcPBM binding intensity (ln)
1,CTTCCAATAAAAAATGCACACATTGAAAATATTGAA [CACACA_site2688],9.93 ± 0.11
2,AAATTATATGAACATTGTACTTTATATATGTAAGAA [XGTACX_site1611],11.2 ± 0.67
3,ACACACATATATACATGTACATATATATATATATAT [XGTACX_site451],11.2 ± 0.73
4,TGGGTAAACAGACACACACACATATAGATTTATATA [CACACA_site7026],10.04 ± 0.064
5,TCTTATCCATATATTACACACTATAAATAGAAATTA [CACACA_site6274],9.89 ± 0.16
6,ATTTGTATATATTAATGTACACACATGCGTATGTTC [XGTACX_site7579],11.2 ± 0.6
7,TATTTTGTTCTTTCCACACACAAATACAGATATTGT [CACACA_site6097],10.15 ± 0.021
8,AAGGTATATATAACTACACACTTATATATAATCTAA [CACACA_site92],9.825 ± 0.049
9,TATACATATGAAAATACACACATACATACATATATA [CACACA_site8484],9.915 ± 0.035
10,ATTATACATATATAAGTGCAATAATGTTTTTTCCTT,9.82 ± 0.21
11,ATATATTTTAATTGATGTACTTTTTTATGTTAATGA [XGTACX_site4316],11.4 ± 1
12,AACAGACAGAAACACACACACATATATATATATATA [CACACA_site3394],9.88 ± 0.12
13,TAATAAAATATGTACACACATACACCCATATATATA [CACACA_site1220],11.5 ± 0.9
14,TGTAGTCTGGAGAAAAGTACATAGTATCTGGTAACC [XGTACX_site2025],11.2 ± 0.81
15,ATTTTCCAAAATAATTGTACAGGAAAGAAATAATTA [XGTACX_site7424],10.9 ± 0.57
16,ATACATATTTTACATTCACACAACAAATTTATATTT [CACACA_site4700],10.2 ± 0.11
17,AGGAACAAAATATACTGTACTTTATTATTTTCAAAA [XGTACX_site4421],11.5 ± 0.86
18,ACAAAACAAAAAAACTCACACATATACGGCATGTCA [CACACA_site5608],9.9 ± 0.29
19,TTACTTTTAACAAATGTGCGCAGTTATCACACAGAC,10.6 ± 0.49
20,TATATTTTGTTCTGTTGTACTAAAAAAATCTTTATA [XGTACX_site8372],11.2 ± 0.71
21,ATTTATTTATTTATATGTACATATTTAAAGAGTTCA [XGTACX_site7631],11.2 ± 0.73
22,ATATATATATATATATGTACTAAGAATTCTTTAAAA [XGTACX_site8476],11 ± 0.82
23,TAATAATAAATTGGTTGTACAACCTTATACAGAATA [XGTACX_site2592],11.5 ± 0.79

row,Sequence,gcPBM binding intensity (ln)
1,ACACAAAAAATAAAAATATATATATATTATATATAT [CACACA_negctrl_site1489],9.49 ± 0.028
2,TAAAAAAATATATATACATGCATAGAAAAAAAAAAA [TGCATGCA_site552],9.61 ± 0.18
3,CATATAATTTTATGGGTGCATTTTTTTGTAAGACCA,10.6 ± 0.44
4,TTTTTTTATTAAAAATGTACAAAAATGAAAAAATAA [XGTACX_site8279],11 ± 0.59
5,CATTTTAAAGAAAATACACACAAAAATAAATATATA [CACACA_site1395],10.2 ± 0.11
6,TTTTAAACAAAAATTTGTACACAATAATTAAATATA [XGTACX_site6755],11.2 ± 0.79
7,ATTTAATTTTTTTTTTTTTTTTTTCAATCCCCTTTT [CACACA_negctrl_site1013],9.8 ± 0.42
8,ATCACATAAAATATGAATATATATTTTATATATATA [CACACA_negctrl_site340],9.62 ± 0.014
9,TTTAATTTTTTTTAAACACACACATTACATTCAAAA [CACACA_site7926],10 ± 0.16
10,AATATATAATTTTATAGTACATAATAAAAGAACAGG [XGTACX_site724],11.3 ± 0.62
11,TTATATTATGCTTGAATGCACTTTGAAGCACAATCT [GTGCAC_site9789],9.96 ± 0.23
12,TATTCAACATAATATGCACACAAAAATTATGGAACG [CACACA_site8660],10.1 ± 0.071
13,TTAAAAAAAAAAAGGTGTACTATAATTTAATATCAC [XGTACX_site6316],11.6 ± 1.1
14,TATATTTACGTATGTCGAACGTTATTTTGAACAACC [CACACA_negctrl_site1261],10.3 ± 0.2
15,TGTATGTCTTTATTTTGTACACAATATAAAAAATTA [XGTACX_site5441],11.2 ± 0.78
16,CGCACAAAAATATACACACACACATATATATTTATT [CACACA_site3645],10 ± 0.12
17,CGTTTATATAGTGATGCATGCATTGTTAACATGGTT [TGCATGCA_site418],9.97 ± 0.057
18,TTTATACACAAAAAATGTACATATATATAATGAATT [XGTACX_site1195],11.2 ± 0.72
19,ACATATAAAATGTATACACACAAATATTACAGAGAT [CACACA_site4920],10.19 ± 0.092
20,GCTTTTGAAAATATACACATGTTAGGAATACAGGGG [TGCATGCA_negctrl_site480],10.8 ± 0.46
21,TATAATAACAATTTAGTGCATATAATAATATTTTAT,9.58 ± 0.16
22,ATTTTTTTTCTTTTTTTTTTACATTTTTTTCTTTTT [CACACA_negctrl_site1289],9.63 ± 0.099
23,AATTAAGTTAAACATTAAAAAAAACAAAAAATTAAA [CACACA_negctrl_site1333],9.785 ± 0.064

row,Sequence,gcPBM binding intensity (ln)
1,AACATACACATATACACACACACATATATACATATA [CACACA_site1093],10.2 ± 0.19
2,AAAAAAAAAAAAACATGTACATAAATGTAAAAAAGT [XGTACX_site8158],11.3 ± 0.53
3,TATAAACCCACCTACACACACAACGTAAATGCATTG [CACACA_site2238],10.3 ± 0.18
4,ATTTAACAACTTCAAACACACAATATAGATTTATAT [CACACA_site7067],9.87 ± 0.042
5,ATATATACATATATATGTACGTATATTTTTATTTCT [XGTACX_site6198],11.6 ± 1.1
6,AATAATTAAAATTATCTACACACCTTTATAAATATA [CACACA_site9300],9.755 ± 0.035
7,AATTTAAACAAGGATCCACACACCCCAAAAAAAAAA [CACACA_site8125],10.6 ± 0.49
8,ATGCATATGTTTATTGCACACACCAAAAAGAAAACA [CACACA_site403],10.3 ± 0.16
9,AAAATGTGCCCACGCGTACACACAAAAAAAGAAAAA [CACACA_site2004],11.6 ± 0.79
10,TACAAACTATGATGCACACATATATATATGTATACA [CACACA_site1226],10.06 ± 0.021
11,GCCATTAATTTATACACACACATTATGATTTTTTAT [CACACA_site754],10.16 ± 0.014
12,CCTGAACACATACATACACACACACTAATAAAAAAA [CACACA_site8023],10.5 ± 0.56
13,TTTATATTATTTTAAACATGCACAAGTATAATTTAT [TGCATGCA_site233],10 ± 0.18
14,TAAATTTAGAAACACACACACATATATATATATATA [CACACA_site847],10.1 ± 0.36
15,TGTGGGAATAACCACACACACACACGCATATAAATA [CACACA_site7634],10.3 ± 0.2
16,AATATAAAACATATCACACATATGTATTTATGTATA [CACACA_site5763],9.62 ± 0.15
17,TATATGTCAATATCTACACACATATATATAATTATT [CACACA_site3156],9.87 ± 0.057
18,ATACATATTAAAGGATGTACACTTATATTTTTTAGA [XGTACX_site5406],11.4 ± 0.78
19,TTTTCATATGAACAATGTACACATCGTATAATTCTG [XGTACX_site4756],11.3 ± 0.67
20,TGAACAGACGAGCACACACACACATATATATATATA [CACACA_site1019],10.5 ± 0.62
